This note sets out measurements from ChEMBL document CHEMBL4888484, “Replenishing the malaria drug discovery pipeline: Screening and hit evaluation of the MMV Hit Generation Library 1 (HGL1) against asexual blood stage Plasmodium falciparum ,using a nano luciferase reporter read-out” (2022).

Molecules are shown by their SMILES. Among all 150,000 compounds or so, about 540 (0.36%) showed an effect of 50% or more. The list shows a part of the results.

The subject of this assay is Plasmodium falciparum. The assay can be described thus: Primary screen in NF54 nanoGlo assay, in single point, at 2uM, 72h; a lower Z score goes with more inhibition. The format is functional, Erythrocyte. The following applies: timepoint 72 hour.
For the compound `CCOC(=O)[C@@H](Cc1ccc(O)cc1)NC(C)=O`, the “% Inhibition” value was -15% and the Z score came to 1.84.
The matching figures for `O=C(c1coc(COc2ccccc2F)n1)N1CCS(=O)(=O)CC1`: -11% and 1.08.
Taken in the same sequence, the figures for `COC[C@H](C)Nc1cnn(-c2ncc(Cl)cc2Cl)c1` were -14% and 2.12.
Taken in the same sequence, the figures for `O=C(O)c1cccnc1N1CCC(OCc2ccc(F)cc2)CC1` were -2% and 0.2.
Regarding `Cc1ccc(C)c(NC(=O)C2CCN(S(=O)(=O)c3cc(C(=O)N4CCOCC4)cs3)CC2)c1`, the “% Inhibition” value is reported as -7% and the Z score came out at 1.11.
As to `C[C@H]1CN(C(=O)c2cccc(-n3ccnc3)c2)CC(C)(C)O1`, the “% Inhibition” value is -13% and the Z score stood at 1.27.
The matching figures for `CNc1nc(-c2cccc(C(=O)NCCCn3cc(C)cn3)c2)ncc1F`: -11% and 1.84.
The matching figures for `CC(C)N1CC[C@H](NCCc2ccccc2)C1`: -6% and 0.77.
The matching figures for `CCN(CC)c1ccc(CN(CCOC)C(=O)COC)c(OS(=O)(=O)CC)c1`: 0% and 0.01.
In the case of `Cc1nc2scc(C3CC3)n2c1CN[C@H](CCO)c1ccccc1`, the “% Inhibition” value is reported as 11% and the Z score is given as -1.52.
The matching figures for `C=CCOc1cc(NC(C)=O)c(Br)cc1Br`: 5% and -0.87.
The matching figures for `CC1CC1C(=O)N1CCc2cc(C(=O)O)ccc21` (stereo not given): 1% and -0.17.
The matching figures for `O=C([C@@H]1CCCN1c1ncnc2ccccc12)N1CCc2sccc2C1`: -11% and 1.2.
As to `Fc1cncnc1N1CCC(COc2cc3c(nn2)CCC3)CC1`, the “% Inhibition” value was -18% and the Z score came to 2.09.
The matching figures for `Cc1oc2c(c1C(=O)NCCC1CCN(C)CC1)CN(Cc1ccc(F)cc1)CC2`: -9% and 0.88.
Taken in the same sequence, the figures for `COCCCNC(=O)[C@]1(C)Cn2nc(-c3ccccc3)cc2C(=O)N1c1ccc(C)cc1C` were 1% and -0.17.
Taken in the same sequence, the figures for `CC[C@H](C)NC(=O)c1cc(C)n(CCN2CCCC2)c1C` were -11% and 2.16.
On to `O=C(NCCN1CCCCC1)c1ccc(-c2cccs2)nc1`, for which the “% Inhibition” value is recorded as -8% and the Z score amounted to 1.51.
The matching figures for `CC(C)c1c(C2CCN(C(=O)c3cc4ccccc4[nH]3)CC2)noc1N`: -10% and 1.62.
Taken in the same sequence, the figures for `COc1cnc(N2CCC(n3ccnc3)CC2)nc1N1CCC(n2ccnc2)CC1` were -4% and 0.4.
In the case of `CCn1cnc2c(NCCc3ccc4[nH]ncc4c3)ncnc21`, the “% Inhibition” value is on record as -4% and the Z score was found to be 0.48.
Regarding `O=c1n(Cc2ccccn2)nc2c(-c3nc(-c4ccc(Cl)cc4)no3)cccn12`, the “% Inhibition” value was -12% and the Z score was 1.89.
Taken in the same sequence, the figures for `CC(C)CN1CCC[C@H]1c1nc(-c2cc(O)ncn2)no1` were -3% and 0.44.
The matching figures for `Cc1ccccc1-n1nc(C(=O)NC2CCCCC2)nc1CCc1ccccc1`: -1% and 0.11.
As to `COC(=O)[C@@H]1C[C@@H](NC(=O)C(c2ccccc2)c2ccccc2)CN1`, the “% Inhibition” value turned out to be 1% and the Z score was -0.17.
For the compound `N#CC1CCN(c2cc([C@H]3CCOC3)nc(N)n2)CC1`, the “% Inhibition” value was 10% and the Z score is -1.35.
The matching figures for `CCC[C@H](C)C(=O)NCC1CCOCC1`: -12% and 2.09.
The matching figures for `O=C(CN1CCC[C@@H]1Cc1cccc2ccccc12)NC1CC1`: 1% and -0.04.
Taken in the same sequence, the figures for `CCCNC(=O)N1CC[C@@H]2[C@H]1C(=O)N(c1cccc(F)c1)C(=O)N2Cc1cccs1` were -4% and 0.46.
Take `CCn1nccc1C(=O)N1CCC[C@H](Cc2nncn2CC2CC2)C1`: the “% Inhibition” value is given as -8% and the Z score was 1.09.
Taken in the same sequence, the figures for `Cc1cc(N)n(CC(=O)N[C@H]2COCC[C@@H]2Oc2ccc(C(N)=O)cc2)n1` were -6% and 0.82.
The matching figures for `O=C1CC[C@@H]2CN(c3cnccn3)CC[C@@H]2N1CCCn1ccnc1`: 0% and 0.02.
The matching figures for `O=C(CNC(=O)Nc1cccnc1)Nc1cccc2ccccc12`: -1% and 0.16.
Take `Cc1nccn1CCC(=O)N[C@H](c1nccn1C)C1CC1`: the “% Inhibition” value worked out at 7% and the Z score was -1.47.
With `Cc1nccn1CCn1c(=O)n(CC2CC2)c2ccc(C(=O)O)cc21`, the “% Inhibition” value is recorded as -17% and the Z score turned out to be 2.09.
The matching figures for `C[C@H](OC(=O)c1cn(-c2ccccc2Cl)nn1)c1cnc2ccccc2c1`: -1% and 0.17.
Regarding `C[C@H](NS(C)(=O)=O)c1ncnn1-c1ccc(C(F)(F)F)cc1`, the “% Inhibition” value amounted to 10% and the Z score is recorded as -1.38.
The matching figures for `CC(C)(C)[C@H](NS(=O)(=O)c1cccc(Br)c1)C(N)=O`: -11% and 2.02.
Taken in the same sequence, the figures for `O=C(NCCCNC(=O)C1CCC1)Nc1ccncc1F` were 4% and -0.74.
The matching figures for `COc1ccc(NC(=O)c2ccc(N[C@@H](C)C(=O)N3CCOCC3)cc2)cc1`: -12% and 1.01.
In the case of `CCN(Cc1noc(CC(C)C)n1)C(=O)c1cccnc1OC`, the “% Inhibition” value is on record as -2% and the Z score is reported as 0.31.
As to `Cc1nc(C2CC2)ncc1C(=O)NC[C@@H](c1ccco1)N1CCCC1`, the “% Inhibition” value was -20% and the Z score stood at 2.44.
Turning to `C[C@H](N(C)C(=O)NC1CCC(O)CC1)C(C)(C)C` (stereo not given in full), the “% Inhibition” value is reported as -1% and the Z score is 0.19.
The matching figures for `COc1ccc(NC(=O)c2ccc(-n3nc(C)c(-c4ccc(F)cc4)c3NC(C)=O)cc2)cc1`: 10% and -1.17.
Taken in the same sequence, the figures for `CCN(C(=O)c1ccc2[nH]c3c(c2c1)CCCC3)[C@H]1CCS(=O)(=O)C1` were -13% and 2.43.
Taken in the same sequence, the figures for `O=C(NCc1ccc(Cl)cc1)c1cccnc1O[C@H]1CCOC1` were -3% and 0.64.
Consider `COc1cc(OC)cc(C(=O)N[C@@H](c2cccnc2)c2cc(C)ccc2C)c1`, for which the “% Inhibition” value was determined as 4% and the Z score is -0.5.
The matching figures for `CN1CCC(O)(c2ccc3c(c2)CN(Cc2c(F)ccc(F)c2F)CCO3)CC1`: -3% and 0.5.
The matching figures for `CC(C)(CO)[C@H](CNC(=O)c1cccc(OCc2cccs2)c1)c1ccccc1`: -11% and 1.79.
The matching figures for `CCn1cc(CN2CCCCCC2)ccc1=O`: -2% and 0.21.
Consider `CCCn1ncc(C(=O)N2CC[C@H](c3sccc3C)[C@@H](O)C2)c1C`, for which the “% Inhibition” value is 5% and the Z score is recorded as -0.68.
Turning to `CCC(CC)C(=O)NCc1ccc(Cl)cc1`, the “% Inhibition” value was -6% and the Z score stood at 0.81.
The matching figures for `CCC(CC)(CC(=O)Nc1ccc(-n2ncn(C)c2=O)cc1)C(=O)O`: -9% and 1.05.
The matching figures for `CC(C)n1ncc2c1CC(NC(=O)CCC1CCCO1)CC2` (stereo not given): -3% and 0.62.
The matching figures for `COc1cc([C@H]2C(=O)N(C3CCCCC3)CC(=O)N2Cc2ccco2)ccc1OC(C)C`: -9% and 1.41.
`CCCc1cc(CNc2nc3ccccc3o2)on1`: the “% Inhibition” value was 0% and the Z score is 0.
Taken in the same sequence, the figures for `C[C@H]1CCCN(S(=O)(=O)NCCc2nnc3ccccn23)C1` were -8% and 1.09.
On to `CC1CC(NC2CCS(=O)(=O)C2)CN(Cc2ccccc2)C1` (stereo not given), for which the “% Inhibition” value is listed as -6% and the Z score is 0.82.
On to `Cc1nn(CC(=O)n2nc(C)c(Br)c2C)c(C)c1Cl`, for which the “% Inhibition” value is reported as -28% and the Z score is listed as 3.31.
The matching figures for `O=C1NCCN1C(=O)NCc1cncc(-c2ccoc2)c1`: -8% and 1.35.
Taken in the same sequence, the figures for `CCOc1ccc(CNC(=O)[C@H]2CCc3[nH]c(C)nc3C2)cc1Cl` were 0% and 0.02.
In the case of `CC1CCCC(C)C1NC(=O)c1ccc(C#N)[nH]1` (stereo not given), the “% Inhibition” value is 1% and the Z score is given as -0.13.
The matching figures for `COc1cccc(CN2CC3(CCN(C(=O)Cn4ccnc4)CC3)CC2=O)c1`: -9% and 1.78.
The matching figures for `COc1ccccc1OCC(=O)Nc1cc(C)nn1-c1nc2c(c(=O)[nH]1)CCC2`: 1% and -0.14.
On to `CC(C)OCC(=O)Nc1ccn(CCCn2ccnc2)n1`, for which the “% Inhibition” value is recorded as -7% and the Z score is on record as 1.24.
The matching figures for `O=C(Cc1ccsc1)N1CC[C@H](Oc2cc(N3CCCC3)ncn2)C1`: 4% and -0.5.
The matching figures for `CC(C)O[C@H]1C[C@@H](NC(=O)NC2CCOCC2C)C1` (stereo not given in full): 0% and 0.
The matching figures for `O=C(CC1=Nc2ccccc2S(=O)(=O)N1)N1CCN(c2ccccc2F)CC1`: 1% and -0.12.
For `Cc1c(NC(=O)N(C)CCC[C@H]2CCCO2)cccc1N1CCCC1`, the “% Inhibition” value is listed as 5% and the Z score is on record as -0.68.
The matching figures for `CCNc1nc(C)c(C(=O)N2CCC3(CC2)C(=O)N(C)c2ccccc23)s1`: -5% and 0.91.
Taken in the same sequence, the figures for `COC(=O)[C@@H]1Cc2nc[nH]c2CN1Cc1c[nH]nc1-c1ccc(F)cc1` were -12% and 1.66.
Taken in the same sequence, the figures for `Cc1cnc(C2CCN(c3ccc(S(N)(=O)=O)cc3C(=O)O)CC2)s1` were -4% and 0.49.
On to `CC[C@H](NC(=O)Nc1cccc(Cl)c1OC)c1nccs1`, for which the “% Inhibition” value is -5% and the Z score is 1.01.
The matching figures for `CCCC[C@H](CC)CNC(=O)c1ccc(Cl)cc1`: -6% and 0.69.
Taken in the same sequence, the figures for `CC1CC(Nc2ncnc3cc(Br)ccc23)CCN1C` (stereo not given) were 97% and -8.72.
Taken in the same sequence, the figures for `CCCC(=O)N1CCN(c2cc(-n3cnc(C)c3C)ncn2)CC1` were -12% and 1.96.
For `Fc1ccccc1OC/C=C/CN1CCNCC1`, the “% Inhibition” value was -9% and the Z score is 0.98.
The matching figures for `COc1ccccc1-c1noc(-c2cn(CC3(C)COC3)nn2)n1`: -7% and 1.34.
Regarding `CCc1nc(C)c(-c2nccn2C2CCN(Cc3ccccc3)CC2)[nH]1`, the “% Inhibition” value is -1% and the Z score is given as 0.13.
Turning to `CC[C@H](NC(=O)Cn1cnnn1)c1nccs1`, the “% Inhibition” value was -7% and the Z score amounted to 0.82.
The matching figures for `Cc1cccc(-c2nc3cc(Cl)ccc3cc2CN(CCCN2CCCC2=O)C(=O)c2csc(C)n2)c1`: 18% and -2.24.
Regarding `Cc1ccc2nc3n(c2c1)[C@@H](CNC(=O)c1ccccn1)COC3`, the “% Inhibition” value is 11% and the Z score was -1.46.
The matching figures for `COc1ccc(NC(=O)N2CC[C@]3(CCN(C)C3)C2)cc1OC`: 4% and -0.47.
The matching figures for `COc1ccc(CN2CCN(c3cccc4c3C(=O)N(C[C@H]3CCCO3)C4=O)CC2)cc1C`: -9% and 1.23.
`Cc1ccc(S(=O)(=O)N2CCN([C@H]3CCN(c4ccccc4)C3)CC2)cc1`: the “% Inhibition” value is listed as -8% and the Z score is listed as 0.82.
